From PMC7089965 (Frontiers in Microbiology, 2020) come the findings set out here.

This experiment has as its system M. tuberculosis H37Rv. The settings on record: broth microdilution, 10^6 CFU/mL, 7 days, 37°C, OD595 and visual.

Values after ≈ are worked out from the molar mass of the structure shown. Where a SMILES comes first, the peptide text is derived from it. [ ]: non-standard residue; d: D form. Nspe = C[C@H](NCC(=O)O)c1ccccc1; NHexGly = CCCCCCNCC(=O)O; Nlys = NCCCCNCC(=O)O

With `CCCCCCNCC(=O)N(CC(=O)N(CCCCN)CC(=O)N(CCCCCC)CC(=O)N(CC(=O)N(CCCCN)CC(N)=O)[C@@H](C)c1ccccc1)[C@@H](C)c1ccccc1` [BM 2] (H-[NHexGly][Nspe][Nlys][NHexGly][Nspe][Nlys]-NH2), the “MIC H37Rv” value stood at 8 µg/mL (≈ 9.11 µM). For `CCCCCCNCC(=O)N(CC(=O)N(CCCCN)CC(=O)N(CCCCCC)CC(=O)N(CC(=O)N(CCCCN)CC(=O)N(CCCCCC)CC(=O)N(CC(=O)N(CCCCN)CC(N)=O)[C@@H](C)c1ccccc1)[C@@H](C)c1ccccc1)[C@@H](C)c1ccccc1` [BM 3] (H-[NHexGly][Nspe][Nlys][NHexGly][Nspe][Nlys][NHexGly][Nspe][Nlys]-NH2), the “MIC H37Rv” value is 16 µg/mL (≈ 12.2 µM).
